# Test results published in PubChem BioAssay (NCI).
# Values joined by “and” are separate entries in the source; they are usually repeats but may differ in a detail not shown here. Identical values can stand only once.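 The compound was tested at five concentrations on cells cultured in 96-well plates, with a 48-hour exposure period. Abbreviation: GI50, concentration required for 50% inhibition of growth. At the TGI there is no net growth.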
# System: NCI-H322M lung
# Assay: DTP human tumour cell line panel, 48 h
SMILES,TGI [µM],GI50
CC(=O)NC(C=O)C(O[C@H](C)C(=O)NC(C)C(=O)NC(CCC(N)=O)C(=O)OCc1ccccc1)C(O)C(O)COC(=O)CCNc1c2ccccc2nc2cccc([N+](=O)[O-])c12 (stereo not given in full),9.97,–
NC(Cc1ccc2nc3c4ccccc4c(=O)cc-3oc2c1)C(=O)O (stereo not given),> 100,–
CCc1nc(N)nc(N)c1-c1ccc(Cl)c(N=[N+]=[N-])c1,> 100,–
O=C(O)/C=C/c1ccc2c(c1)CC1(Cc3ccccc3C1)C2,> 100,–
Cl.Fc1c[c-]c(-c2ccccn2)c(F)c1.[Pt].c1ccc([PH+](C[PH+](c2ccccc2)c2ccccc2)c2ccccc2)cc1,1.1,0.316 µM
COCCOCCOCCOc1cccc2c1C(=O)c1cccc(OCCOCCOCCOC)c1C2=O,> 100,–
O=C(O)c1nc2ccc(C(F)(F)F)cc2nc1Nc1ccc(F)cc1,81.6,–
CCCCCCNCc1cc(C(C)(C)C)cc(CNCCCCCC)c1O,3.08,1.66 µM
CCCCCCCCCCCCCC[n+]1ccc(C)cc1,3.47,1.75 µM
Nc1nc(Cl)c(Cl)c(NCC2(O)CCC2)n1,> 100,–
O=C1CSC(c2cccc(Cl)c2)N1c1ccc(-c2ccc(-n3c(-c4ccccc4)nc4ccccc4c3=O)cc2)cc1 (stereo not given),> 100,–
O=C(CCCN1CCC(C(O)c2ccc(F)cc2)CC1)c1ccc(F)cc1 (stereo not given),94.1,–
O=C(CC1C=Cc2ccccc2N1C(=O)c1ccccc1)c1ccccc1 (stereo not given),72.2,–
O=c1[nH]cnc2c(COCCO)c[nH]c12,> 100,–
O=C(Nc1ccc(S(=O)(=O)/N=c2\ncccn2C(=O)C(C(F)(F)F)C(F)(F)F)cc1)C(C(F)(F)F)C(F)(F)F,> 100,–
COc1ccc(NCC(=O)Nn2c(-c3ccccc3)nc3ccccc3c2=O)cc1,> 100,–
COc1ccc(C(=O)C#Cc2c[nH]c(=O)[nH]c2=O)cc1,35.7,–
COc1cc(Cl)cc(-c2nn(-c3cccc(NC(=O)Nc4ccc(Cl)c(Cl)c4)c3)cc2-c2ccncc2)c1,> 100,3.28 µM
CC(=O)c1ccc(NC(=O)COC(=O)c2cccc3c(=O)c4ccccc4[nH]c23)cc1,> 100,–
Cc1nc2cc(Nc3ccccc3C(=O)O)ccc2s1,> 100,–
CCOC(=O)C1(C#N)CC1,> 100,–
CCCCOC(=O)C1CC[C@H]2[C@@H]3CCc4cc(OC(=O)c5cccc6c(=O)c7ccccc7[nH]c56)ccc4[C@H]3CC[C@]12C (stereo not given in full),18.7,–
C/C(N=NS(=O)(=O)c1ccc([N+](=O)[O-])cc1)=C1\C=CC=CN1O,> 100,–

SMILES,TGI [µM],GI50
CC(=O)/C=C/c1ccc(OCc2ccc(Cl)cc2)cc1,> 1000,980 µM
CCn1c2ccccc2c2c(-c3ccccc3)cc3c(c21)C(=O)N(c1ccccc1)C3=O,> 100,–
CCC(C)C1=C(O)[N+]2([O-])Oc3ccc(-c4c(O)c(O)c(-c5ccc(OC(C)=O)cc5)c(OC(C)=O)c4OC(C)=O)cc3OC2(C(C)CC)C(=O)N1O (stereo not given),> 50,–
CC(Oc1ccccc1)C(=O)NNC(=O)OC(C)(C)C (stereo not given),> 100,–
Cc1cc2nc3c(C#N)c4c(c(-c5ccc(Cl)cc5)n3c2cc1C)CCC4,33,–
COc1cc2c(c(OC)c1OC)-c1ccc(N=NC(N)=S)c(=O)cc1[C@@H](NC(C)=O)CC2,> 100,0.434 µM
COc1ccc(-c2c(-c3ccccc3)c(C)nc3nc(SC)nc(SC)c23)cc1OC,> 100,–
CC1=Nc2c([nH]c(=S)[nH]c2=O)NC(c2c(Cl)cccc2Cl)C1 (stereo not given),13,–
Cc1nc2cc(Nc3nc(Nc4ccc(F)cc4)nc(N4CCOCC4)n3)ccc2n1Cc1ccccc1,38.2,8.21 µM
O=C(SCc1cccc2ccccc12)c1ccc(Cl)cc1,> 100,–
O=C(NCCCl)SCCO,> 100,–
O=C1CN(c2cccc(Cl)c2)C(=O)CN1NCNN1CC(=O)N(c2cccc(Cl)c2)CC1=O,> 100,–
[N-]=[N+]=CC(=O)OCCCCl,> 100,–
COc1c(N2CCN(CN3C(=O)C(=O)c4cc(Cl)ccc43)C(C)C2)c(F)cc2c(=O)c(C(=O)O)cn(C3CC3)c12 (stereo not given),> 100,17.5 µM
CC(C)(NC(=O)OCc1ccccc1)C(=O)OC(=O)C(C)(C)NC(=O)OCc1ccccc1,> 100,–
O=C1c2cccnc2C(=O)c2c1c(C(=O)OCCCN1CCCCC1)c1ccccn21,1.62,< 0.0118 µM
COC1C(N(C)C)=C(c2ccccc2)C(=O)N2CCc3ccccc3C12 (stereo not given),> 100,–
CC1=CP(=O)(c2c(C(C)C)cc(C(C)C)cc2C(C)C)CCC1Cl (stereo not given),29.1,–
COc1cc2c(cc1OC)C(=O)/C(=C/c1cc(C)cc(C)c1)C2,> 100,–
CN(CCCCCl)P(=O)(OCc1ccc([N+](=O)[O-])o1)OCC1OC(n2cnc([N+](=O)[O-])c2N)C(O)C1O (stereo not given),> 100,> 100 µM
CN1CCN(c2nc(-c3csc(-c4cccs4)n3)cc3ccccc23)CC1,3.37,1.69 µM
COc1ccccc1C1(c2c(OC)c(=O)c2=O)SCCCS1,> 100,–
CCN1CCC(CNC(=O)c2ccc(N)cc2)N1CC (stereo not given),> 100,–

SMILES,TGI [µM],GI50
C=C(C(=C)P(=S)(C(C)C)C(C)C)P(=S)(C(C)C)C(C)C,> 100,–
CN(CCNC(=O)c1c[nH]c2c1Cc1ccccc1-2)CCNC(=O)c1c[nH]c2c1Cc1ccccc1-2,> 100,–
Cc1ccc(S(=O)(=O)N/N=C/C(C)C)cc1,> 100,–
CCC1(CN(C)C)CC/C(=C\c2ccc(OC)c(OC)c2)C1=O (stereo not given),> 100,–
CCN1C(=NCCO)NS(=O)(=O)c2ccccc21,> 100,–
CCCCOC1OC(COC(=O)C(C)C)C(OC(=O)C(C)C)C(O)C1OC1OC(C)C(OC(=O)CCC)C(OC(=O)C(C)C)C1O (stereo not given),28.2,13.8 µM
CSc1nc(N)c2c(-c3ccccc3)c3c(nc2n1)CCCC3,> 100,–
COc1ccc(C(=O)c2sc3nc(-c4cccs4)ccc3c2N)cc1OC,> 100,> 100 µM
O=[N+]([O-])c1cc([N+](=O)[O-])c(Cl)cc1Cl,3.29,1.77 µM
CN(CCC(=O)/C(=C\c1ccccc1)c1ccc(Cl)cc1)Cc1ccccc1,23.3,7.92 µM
CC(=O)Nc1n[n+]([O-])c2cc(C)ccc2[n+]1[O-],27.6,–
Cc1ccc(-n2nnnc2-c2cnc(N3CCOCC3)nc2-c2cccc(C(F)(F)F)c2)cc1,15.1,1.95 µM
NC(=O)c1sc(-n2cnc3cc(C(F)(F)F)ccc32)cc1OCc1ccccc1Br,> 25,> 25 µM
C[C@H](CCC1SC1(C)C)C1CCC2(C)C3=C(CC[C@]12C)[C@@]1(C)CC[C@H](O)C(C)(C)C1CC3 (stereo not given in full),> 100,–
C(#CP(c1ccccc1)c1ccccc1)P(C#CP(c1ccccc1)c1ccccc1)c1ccccc1,> 100,–
COC(=O)c1cc(OC)c(OC)c(OC)c1-c1cc2c(cc1C=O)OCO2,> 10,–
CC(=O)OCC1OC(n2c(S)c(C#N)c(-c3ccccc3)c(C#N)c2=O)C(OC(C)=O)C(OC(C)=O)C1OC(C)=O (stereo not given),> 100,> 100 µM and 34.6 µM
Cn1cc(S(=O)(=O)NC(=O)Nc2ccc(Cl)cc2)c(=O)c2ccc(F)cc21,> 100,–
O=C1CCCCC12CCC/C2=N\O (stereo not given),> 100,–
COc1nc2ccc(COc3ccc(C(=O)O)cc3)cc2nc1OC,> 100,–
COc1cc(-c2c3c(cc4c2OCO4)[C@@H](Nc2ccc(-c4ccc(-c5ccc(N[C@@H]6c7cc8c(cc7C(c7cc(OC)c(O)c(OC)c7)[C@H]7C(=O)OC[C@H]67)OCO8)cc5)cc4)cc2)[C@H]2COC(=O)[C@@H]2C3)cc(OC)c1O (stereo not given in full),10.6,–
